{"source": "PubChem BioAssay AID1347165", "about": "(National Center for Advancing Translational Sciences (NCATS), 2019)", "note": "In all, about 220,000 compounds went through this assay and about 5,700 (2.6%) were called active. The inconclusive results got no clear call from the source; some entries with a clear call stand among them for comparison. Calls follow the shape of the dose curve; as a rule, active = well fitted inhibition curve with a large enough effect; inconclusive = small, poorly fitted or top-dose-only effect; inactive = no such curve, though single readings can be large or run the other way. Potencies of inconclusive entries are doubtful fits and often do not repeat. Potency is read from the fitted curve at half-maximal effect; tags tell the direction and shape of the fitted curve.", "data": [{"biological_target": "Lysine-specific demethylase 5B (Homo sapiens) (UniProt Q9UGL1)", "sequence (Q9UGL1 whole entry, looked up)": "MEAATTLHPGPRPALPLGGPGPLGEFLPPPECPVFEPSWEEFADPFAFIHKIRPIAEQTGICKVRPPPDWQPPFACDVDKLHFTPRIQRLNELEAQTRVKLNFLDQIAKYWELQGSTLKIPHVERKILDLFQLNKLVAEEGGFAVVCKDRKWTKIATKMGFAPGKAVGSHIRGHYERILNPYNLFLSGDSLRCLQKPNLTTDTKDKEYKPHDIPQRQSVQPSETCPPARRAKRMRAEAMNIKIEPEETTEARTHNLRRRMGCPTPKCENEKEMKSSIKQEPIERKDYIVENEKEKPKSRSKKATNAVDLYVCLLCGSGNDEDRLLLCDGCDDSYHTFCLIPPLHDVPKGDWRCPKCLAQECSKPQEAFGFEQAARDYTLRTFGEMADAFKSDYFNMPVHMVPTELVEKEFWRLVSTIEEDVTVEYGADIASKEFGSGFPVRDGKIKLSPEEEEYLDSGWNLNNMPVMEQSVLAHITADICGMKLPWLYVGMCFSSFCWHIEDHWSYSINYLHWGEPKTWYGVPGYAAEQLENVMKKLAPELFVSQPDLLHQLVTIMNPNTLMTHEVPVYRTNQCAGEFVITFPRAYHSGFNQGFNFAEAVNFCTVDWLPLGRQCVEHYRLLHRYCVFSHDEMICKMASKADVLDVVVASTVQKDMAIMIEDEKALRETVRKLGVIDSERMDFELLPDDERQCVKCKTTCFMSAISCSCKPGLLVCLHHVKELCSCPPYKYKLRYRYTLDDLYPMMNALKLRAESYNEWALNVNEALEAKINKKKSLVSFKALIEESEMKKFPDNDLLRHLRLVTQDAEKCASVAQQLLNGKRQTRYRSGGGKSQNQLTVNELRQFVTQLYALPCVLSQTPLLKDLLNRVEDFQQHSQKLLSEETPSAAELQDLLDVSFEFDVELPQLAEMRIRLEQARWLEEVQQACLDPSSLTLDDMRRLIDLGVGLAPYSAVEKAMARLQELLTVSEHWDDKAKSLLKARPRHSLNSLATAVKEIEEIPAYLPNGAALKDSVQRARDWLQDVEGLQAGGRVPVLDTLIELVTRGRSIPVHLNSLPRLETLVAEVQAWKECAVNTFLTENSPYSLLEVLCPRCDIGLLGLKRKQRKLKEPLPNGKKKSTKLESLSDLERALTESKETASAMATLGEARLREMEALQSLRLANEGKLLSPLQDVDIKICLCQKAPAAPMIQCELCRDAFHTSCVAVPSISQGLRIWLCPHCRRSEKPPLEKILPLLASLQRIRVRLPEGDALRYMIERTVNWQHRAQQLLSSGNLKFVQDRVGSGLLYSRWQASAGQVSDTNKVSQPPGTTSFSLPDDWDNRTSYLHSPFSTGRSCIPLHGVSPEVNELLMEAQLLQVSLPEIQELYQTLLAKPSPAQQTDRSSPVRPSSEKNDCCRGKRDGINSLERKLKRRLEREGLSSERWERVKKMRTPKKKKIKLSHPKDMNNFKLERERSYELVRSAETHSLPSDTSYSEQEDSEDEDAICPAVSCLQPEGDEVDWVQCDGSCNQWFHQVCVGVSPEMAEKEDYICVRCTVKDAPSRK", "assay": "Primary screen for KDM5B Histone Demethylases FDH-coupled qHTS; also: nearly all actives have a fitted effect of over 70% in size; as to activity change, negative = inhibition: 0% is about no effect", "details": "FDH-coupled NADH fluorescence (FDH is formaldehyde dehydrogenase); activity change, negative = inhibition: at 57.7 µM (top of the series) unless noted", "summary_of_the_method": "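Measured: NADH fluorescence change, 30 min, RT. System: KDM5BΔAP 200 nM final, H3K4me3 peptide, α-KG, Fe(II), ascorbate, NAD⁺ plus FDH, pH 7.5 HEPES. Compounds: titrated, 10 min pre-incubation with enzyme.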", "values": [{"smiles": "COCCN(Cc1ccccc1)C(=O)COc1ccc2ccc(=O)oc2c1", "Potency": "inconclusive: 25.1 µM [inhibitor, partial curve, poor fit]"}, {"smiles": "Cn1ccc2c(C(=O)NCC3CCC(=O)N3)nc(-c3ccccc3O)cc21", "note": "(centres undefined)", "Potency": "inconclusive: 25.1 µM [inhibitor, partial curve, poor fit]"}, {"smiles": "Cc1ccc(-c2ccc(CCC(=O)N[C@@H]3CCOC[C@H]3OCC(=O)O)o2)cc1", "Potency": "active: 28.2 µM"}, {"smiles": "Cc1ccc(N2CCN(C(=O)c3nn(C)c4c3CS(=O)(=O)c3ccccc3-4)CC2)c(C)c1", "Potency": "inconclusive: 28.2 µM [inhibitor, single point]"}, {"smiles": "COc1ccc(CN2CCc3c(c(=O)n4ncc(C(=O)N5CCN(c6ccccc6OC)CC5)c4n3C)C2)cc1", "Potency": "inconclusive: 31.6 µM [inhibitor, partial curve, poor fit]"}, {"smiles": "Cc1cn2nc(C(=O)Nc3ccc(N(C)C)cc3)cc2c(N2CCSCC2)n1", "activity change, negative = inhibition": "inactive: 48.7%"}, {"smiles": "Oc1c(C(c2cccs2)N2CCCC2)sc2nc(-c3ccco3)nn12", "note": "(centres undefined)", "activity change, negative = inhibition": "inactive: -6.76%"}, {"smiles": "O=C(c1cc(Br)cn2ccnc12)N1CCC(N2CCCCC2)CC1", "Potency": "active: 28.2 µM"}, {"smiles": "CCCC(=O)Nc1ccc2oc(-c3ccc(OC)c(Cl)c3)nc2c1", "Potency": "inconclusive: 1.78 µM [inhibitor, full curve, poor fit]"}, {"smiles": "Cc1ccc(SCC(=O)NCc2ccc(CS(N)(=O)=O)cc2)c(C)c1", "Potency": "inconclusive: 31.6 µM [inhibitor, single point]"}, {"smiles": "CCN(Cc1ccncc1)C(=O)C1(Oc2ccc(C)cc2)CCNCC1", "Potency": "inconclusive: 17.8 µM [inhibitor, partial curve, poor fit]"}, {"smiles": "Cc1noc(-c2cccs2)c1C(=O)NC(C)c1cccc2ccccc12", "note": "(centres undefined)", "Potency": "active: 31.6 µM"}, {"smiles": "COc1cc(SC)ccc1C(=O)Nc1ccc(S(=O)(=O)Nc2nccc(C)n2)cc1", "activity change, negative = inhibition": "inactive: -6.24%"}, {"smiles": "O=c1[nH]c(=O)n(Cc2ccccc2)c2nc(-c3ccncc3)n(CC3CCCO3)c12", "note": "(centres undefined)", "Potency": "inconclusive: 17.8 µM [inhibitor, partial curve, poor fit]"}, {"smiles": "CCCn1cc(-c2ccnc(NCc3cccc(C)c3)n2)c(C)n1", "Potency": "active: 28.2 µM"}, {"smiles": "Cc1cn2nc(C(=O)NCc3ccc(C(C)C)cc3)cc2c(N2CCSCC2)n1", "Potency": "active: 14.1 µM"}, {"smiles": "CN1CCCCCC(O)c2cc(C(=O)NCc3nc4ccccc4n3C)ccc21", "note": "(centres undefined)", "Potency": "inconclusive: 22.4 µM [inhibitor, single point]"}, {"smiles": "CCNc1c(NS(=O)(=O)c2ccc(C3CCCCC3)cc2)c(=O)oc2ccccc12", "Potency": "inconclusive: 39.8 µM [inhibitor, single point]"}, {"smiles": "N#C/C(=C\\c1ccc(OC(=O)c2ccccc2)cc1)C(=O)Nc1ccccc1C(F)(F)F", "Potency": "inconclusive: 15.8 µM [inhibitor, partial curve, poor fit]"}]}]}
